The other results are listed elsewhere or left out. At the low end of the ranking the order means little.

The target in the assay is GST-SBP-SLBP (stem-loop binding protein) (UniProt Q14493). In words: targeted RNA Bind-n-Seq.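 Further: DESeq read counts versus GST-SBP nonspecific binding control pulldown.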 Particulars: RBNS binding buffer: 25 mM Tris pH 7.5, 150 mM KCl, 3 mM MgCl2, 0.1% Tween, 0.5 mg/mL BSA, 1 mM DTT; 27 nM protein, 750 pM RNA pool; temperature not stated; high values mean tight binding.
As for “GGUCACGUCUCAAUCAACUCUUCGUCAGGAGUUUUCUCCUGCAAUUUCAACAGCUCGCAGUCAAG”, the binding signal (log2 fold change) was -0.0168.
Under “GGUCACGUCUCAAUCAACUCACUAGAGGGGGGGAAAACCCCUUUGCCCUCAUAUUCAACAGCUCGCAGUCAAG” stands -0.235; under “GGUCACGUCUCAAUCAACUCUACUCCCAGGGAAAUCCCUGGCUUUCUCAACAGCUCGCAGUCAAG”, 0.077.
Under “GGUCACGUCUCAAUCAACUCAUCCCCAGGAGUUUUCUCCUGCAUUUUCAACAGCUCGCAGUCAAG” stands 0.0349.
Under “GGUCACGUCUCAAUCAACUCAACUCCAGGAGUUUCCUCCUGCAAUUUCAACAGCUCGCAGUCAAG” stands 0.067.
Turning to “GGUCACGUCUCAAUCAACUCAUUCUCCAGGGAAACCCCUGGUUUACUCAACAGCUCGCAGUCAAG”, the binding signal (log2 fold change) is -0.155.
Under “GGUCACGUCUCAAUCAACUCUUUAGAGGGGGGGAAAACCCCUUUGCCCUCAACUUCAACAGCUCGCAGUCAAG” stands 0.318.
Under “GGUCACGUCUCAAUCAACUCUUUCUCCAGGGAAACCCCUGGCAUACUCAACAGCUCGCAGUCAAG” stands -0.0265; under “GGUCACGUCUCAAUCAACUCCCAAGAGGGGGGGAAAACCCCUUUGCCCUCAAUCUCAACAGCUCGCAGUCAAG”, 0.193; under “GGUCACGUCUCAAUCAACUCUCCCGAGGGGGGGAAAACCCCUUUGCCCUCAUAAUCAACAGCUCGCAGUCAAG”, -0.00248.
With “GGUCACGUCUCAAUCAACUCUAUCCCCAGGGAAACCCCUGGCAUAUUCAACAGCUCGCAGUCAAG” the figure was 0.00938.
With “GGUCACGUCUCAAUCAACUCACAAGAGGGGGGGAAAACCCCUUUGCCCUCAGAAUCAACAGCUCGCAGUCAAG”, the binding signal (log2 fold change) was -0.193.
Under “GGUCACGUCUCAAUCAACUCUAUAGAGGGGGGGAAAACCCCUUUGCCCUCACUAUCAACAGCUCGCAGUCAAG” stands -0.0226; under “GGUCACGUCUCAAUCAACUCAUUCCCAGGAGUUUCCUCCUGUUUACUCAACAGCUCGCAGUCAAG”, 0.0126; under “GGUCACGUCUCAAUCAACUCAACUCCCAGGGAAAGCCCUGGCAAAUUCAACAGCUCGCAGUCAAG”, 0.135.
With “GGUCACGUCUCAAUCAACUCAGUCCCAGGAGUUUUCUCCUGUAUUCUCAACAGCUCGCAGUCAAG” the figure was 0.0936; with “GGUCACGUCUCAAUCAACUCUAUUUCAGGAGUUUACUCCUGCUUUCUCAACAGCUCGCAGUCAAG”, 0.0608.
Under “GGUCACGUCUCAAUCAACUCUUCCUCAGGAGUUUUCUCCUGCAAACUCAACAGCUCGCAGUCAAG” stands -0.0179; under “GGUCACGUCUCAAUCAACUCAAUUUCAGGAGUUUUCUCCUGCUAUCUCAACAGCUCGCAGUCAAG”, 0.0414; under “GGUCACGUCUCAAUCAACUCUUCUCCAGGAGUUUACUCCUGUAUUUUCAACAGCUCGCAGUCAAG”, 0.087.
“GGUCACGUCUCAAUCAACUCAAUCUCCAGGGAAAACCCUGGCAAAGUCAACAGCUCGCAGUCAAG”: the binding signal (log2 fold change) came to 0.214.
With “GGUCACGUCUCAAUCAACUCAUCCUCCAGGGAAAGCCCUGGUUAUCUCAACAGCUCGCAGUCAAG” the figure was -0.228; with “GGUCACGUCUCAAUCAACUCUACUUCCAGGGAAAUCCCUGGCGUUUUCAACAGCUCGCAGUCAAG”, -0.0229.
With “GGUCACGUCUCAAUCAACUCAAUCUCAGGAGUUUUCUCCUGCAUAUUCAACAGCUCGCAGUCAAG” the figure was 0.116; with “GGUCACGUCUCAAUCAACUCUUCGUCAGGAGUUUUCUCCUGUAAUUUCAACAGCUCGCAGUCAAG”, -0.0972; with “GGUCACGUCUCAAUCAACUCUUUUUCAGGAGUUUCCUCCUGUAUAUUCAACAGCUCGCAGUCAAG”, -0.0169.
Under “GGUCACGUCUCAAUCAACUCCCAAGAGGGGGGGAAAACCCCUUUACCCUCCAUGUCAACAGCUCGCAGUCAAG” stands -0.222; under “GGUCACGUCUCAAUCAACUCAACGGAGGGGGGGAAAACCCCUUUACCCUCAAUAUCAACAGCUCGCAGUCAAG”, -0.699.
Take “GGUCACGUCUCAAUCAACUCCUAAGAGGGGGGGAAAACCCCUUUGCCCUCACCUUCAACAGCUCGCAGUCAAG”: the binding signal (log2 fold change) was -0.188.
With “GGUCACGUCUCAAUCAACUCAGUCCCCAGGGAAAGCCCUGGCUUUUUCAACAGCUCGCAGUCAAG” the figure was -0.185; with “GGUCACGUCUCAAUCAACUCUUAAGAGGGGGGGAAAACCCCUUUACCCUCGAUAUCAACAGCUCGCAGUCAAG”, 0.0892.
With “GGUCACGUCUCAAUCAACUCCAAAGAGGGGGGGAAAACCCCUUUGCCCUCGAUAUCAACAGCUCGCAGUCAAG” the figure was -0.56; with “GGUCACGUCUCAAUCAACUCUUCCCCCAGGGAAAUCCCUGGUAUUUUCAACAGCUCGCAGUCAAG”, 0.234; with “GGUCACGUCUCAAUCAACUCAUCUUCAGGAGUUUUCUCCUGUUUAUUCAACAGCUCGCAGUCAAG”, 0.138.
Under “GGUCACGUCUCAAUCAACUCUUACGAGGGGGGGAAAACCCCUUUACCCUCACCAUCAACAGCUCGCAGUCAAG” stands -0.0533; under “GGUCACGUCUCAAUCAACUCUUCUCCAGGAGUUUACUCCUGCAUAUUCAACAGCUCGCAGUCAAG”, -0.194; under “GGUCACGUCUCAAUCAACUCAAACGAGGGGGGGAAAACCCCUUUACCCUCACCAUCAACAGCUCGCAGUCAAG”, -0.0165.
With “GGUCACGUCUCAAUCAACUCUUUUCCCAGGGAAAUCCCUGGUUUUGUCAACAGCUCGCAGUCAAG”, the binding signal (log2 fold change) was -0.18.
Under “GGUCACGUCUCAAUCAACUCUUAAGAGGGGGGGAAAACCCCUUUGCCCUCACACUCAACAGCUCGCAGUCAAG” stands 0.323; under “GGUCACGUCUCAAUCAACUCCCACGAGGGGGGGAAAACCCCUUUACCCUCUAAAUCAACAGCUCGCAGUCAAG”, 0.0887.
Under “GGUCACGUCUCAAUCAACUCUUCGUCAGGAGUUUUCUCCUGUUAUUUCAACAGCUCGCAGUCAAG” stands 0.0262; under “GGUCACGUCUCAAUCAACUCAUCCUCCAGGGAAAACCCUGGCAAAUUCAACAGCUCGCAGUCAAG”, 0.22.
Under “GGUCACGUCUCAAUCAACUCUACUUCCAGGGAAAACCCUGGUUAAUUCAACAGCUCGCAGUCAAG” stands 0.14; under “GGUCACGUCUCAAUCAACUCAUCGUCAGGAGUUUCCUCCUGUUUACUCAACAGCUCGCAGUCAAG”, -0.0767.
With “GGUCACGUCUCAAUCAACUCACUAGAGGGGGGGAAAACCCCUUUACCCUCCACAUCAACAGCUCGCAGUCAAG”, the binding signal (log2 fold change) was -0.134.
Take “GGUCACGUCUCAAUCAACUCUUCGGCAGGAGUUUACUCCUGGAAAUUCAACAGCUCGCAGUCAAG”: the binding signal (log2 fold change) was 0.212.
“GGUCACGUCUCAAUCAACUCACUAGAGGGGGGGAAAACCCCUUUGCCCUCGAAAUCAACAGCUCGCAGUCAAG”: the binding signal (log2 fold change) amounted to 0.209.
Under “GGUCACGUCUCAAUCAACUCGCAAGAGGGGGGGAAAACCCCUUUACCCUCAAUUUCAACAGCUCGCAGUCAAG” stands 0.343.
With “GGUCACGUCUCAAUCAACUCAUCCUCAGGAGUUUUCUCCUGUAUAUUCAACAGCUCGCAGUCAAG” the figure was -0.0871.
For the sequence “GGUCACGUCUCAAUCAACUCUCACGAGGGGGGGAAAACCCCUUUGCCCUCACUUUCAACAGCUCGCAGUCAAG”, the binding signal (log2 fold change) came to 0.351.
Under “GGUCACGUCUCAAUCAACUCUUCUCCCAGGGAAAUCCCUGGUAAAUUCAACAGCUCGCAGUCAAG” stands -0.239; under “GGUCACGUCUCAAUCAACUCAUCGCCAGGAGUUUGCUCCUGUAUAUUCAACAGCUCGCAGUCAAG”, -0.00513.
In the case of “GGUCACGUCUCAAUCAACUCCAACGAGGGGGGGAAAACCCCUUUACCCUCAAACUCAACAGCUCGCAGUCAAG”, the binding signal (log2 fold change) came to 0.0535.
For “GGUCACGUCUCAAUCAACUCUUUUCCCAGGGAAAUCCCUGGCAUACUCAACAGCUCGCAGUCAAG”, the binding signal (log2 fold change) came to 0.334.
Under “GGUCACGUCUCAAUCAACUCUUCCUCCAGGGAAAGCCCUGGUUUAUUCAACAGCUCGCAGUCAAG” stands -0.0553; under “GGUCACGUCUCAAUCAACUCUACUUCAGGAGUUUCCUCCUGUAUACUCAACAGCUCGCAGUCAAG”, -0.084.
In the case of “GGUCACGUCUCAAUCAACUCUUCCUCCAGGGAAAACCCUGGCUUACUCAACAGCUCGCAGUCAAG”, the binding signal (log2 fold change) worked out at 0.173.
As to “GGUCACGUCUCAAUCAACUCAUCCCCAGGAGUUUGCUCCUGCAUUCUCAACAGCUCGCAGUCAAG”, the binding signal (log2 fold change) came out at 0.306.
Under “GGUCACGUCUCAAUCAACUCACCCGAGGGGGGGAAAACCCCUUUACCCUCAUAUUCAACAGCUCGCAGUCAAG” stands -0.25; under “GGUCACGUCUCAAUCAACUCUAUUUCCAGGGAAAACCCUGGUAUUUUCAACAGCUCGCAGUCAAG”, 0.125; under “GGUCACGUCUCAAUCAACUCAUCUUCAGGAGUUUGCUCCUGUAUACUCAACAGCUCGCAGUCAAG”, 0.0134.
Under “GGUCACGUCUCAAUCAACUCCUUCGAGGGGGGGAAAACCCCUUUACCCUCAACCUCAACAGCUCGCAGUCAAG” stands -0.265; under “GGUCACGUCUCAAUCAACUCAGUCUCCAGGGAAAUCCCUGGUAAAUUCAACAGCUCGCAGUCAAG”, -0.138; under “GGUCACGUCUCAAUCAACUCUAUCCCCAGGGAAAGCCCUGGCUUACUCAACAGCUCGCAGUCAAG”, 0.3.
Under “GGUCACGUCUCAAUCAACUCUUCGCCAGGAGUUUUCUCCUGUUUAUUCAACAGCUCGCAGUCAAG” stands 0.18.
Take “GGUCACGUCUCAAUCAACUCAUCCUCCAGGGAAACCCCUGGCAAUCUCAACAGCUCGCAGUCAAG”: the binding signal (log2 fold change) came to 0.0869.
With “GGUCACGUCUCAAUCAACUCUUUAGAGGGGGGGAAAACCCCUUUGCCCUCAAUUUCAACAGCUCGCAGUCAAG” the figure was 0.141; with “GGUCACGUCUCAAUCAACUCAGUUUCAGGAGUUUUCUCCUGCUUUCUCAACAGCUCGCAGUCAAG”, 0.0887.
“GGUCACGUCUCAAUCAACUCAGUCUCAGGAGUUUACUCCUGUUUUCUCAACAGCUCGCAGUCAAG”: the binding signal (log2 fold change) is -0.0414.
With “GGUCACGUCUCAAUCAACUCUUCCCCAGGAGUUUACUCCUGCUAAUUCAACAGCUCGCAGUCAAG” the figure was -0.0235; with “GGUCACGUCUCAAUCAACUCUACUCCCAGGGAAACCCCUGGUAUAUUCAACAGCUCGCAGUCAAG”, -0.211; with “GGUCACGUCUCAAUCAACUCCAUAGAGGGGGGGAAAACCCCUUUACCCUCAUCUUCAACAGCUCGCAGUCAAG”, 0.112.
Consider “GGUCACGUCUCAAUCAACUCUACUCCCAGGGAAAGCCCUGGUAAUUUCAACAGCUCGCAGUCAAG”, for which the binding signal (log2 fold change) is -0.0583.
